Some of the results follow.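 How the source made its calls: active = permutation test q below 0.05 after Benjamini-Hochberg correction; inactive = q of 0.05 or more.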
tested on: U2OS; assay: mean average precision of replicate retrieval against DMSO controls (Cell Painting phenotypic activity) (fraction (0-1)); higher = stronger, more reproducible morphological phenotype distinct from DMSO; extreme values may be limits of the assay; settings: 48 h; 5 µM
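Further: cosine similarity of well-level aggregated Cell Painting profiles ranks each compound's replicate wells against DMSO wells, four replicate plates, significance from 100,000 rank shuffles.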

Compound | mean average precision
COC(=O)C1=C(C#N)NC(C)=C(C(=O)OC(C)C)C1c1cccc([N+](=O)[O-])c1 (stereo unspecified) | inactive: 0.297
CN1CCN(c2nc(C3=C(c4c[nH]c5ccccc45)C(=O)NC3=O)c3ccccc3n2)CC1 | active: 1
CCC(c1ccc(O)cc1)C(CC)c1ccc(O)cc1 (stereo unspecified) | inactive: 0.31
CC(C)[C@@H]1C(=O)N(S(C)(=O)=O)[C@@H]2CCN(C(=O)/C=C/CN3CCCCC3)[C@H]21 | active: 0.363
Nc1nc(F)nc2c1ncn2[C@@H]1O[C@H](CO)[C@@H](O)[C@@H]1O | active: 1
Nc1nnc(Sc2ncc([N+](=O)[O-])s2)s1 | active: 1
COc1ccc(-c2coc3cc(O)ccc3c2=O)cc1 | inactive: 0.277
COc1ccc(Cl)cc1[C@]1(F)C(=O)Nc2cc(C(F)(F)F)ccc21 | inactive: 0.167
CCOC(=O)c1c2c3c(cccc3[nH]c1=O)C(=O)c1ccccc1-2 | inactive: 0.26
O=C1C(Cl)=C(NCCN2CCOCC2)C(=O)c2ncccc21 | active: 1
CCOc1ccc2nc(S(N)(=O)=O)sc2c1 | active: 0.326
C[S+]([O-])c1ccc(-c2nc(-c3ccc(F)cc3)c(-c3ccncc3)[nH]2)cc1 (stereo unspecified) | active: 1
CCCCCCOc1nsnc1C1=CCCN(C)C1 | inactive: 0.243
CNC(=O)[C@H](Cc1c[nH]c2ccccc12)NC(=O)[C@@H](CC(=O)NO)CC(C)C | active: 0.788
CCN[C@H]1CN(CCCOC)S(=O)(=O)c2sc(S(N)(=O)=O)cc21 | inactive: 0.268
CC1Oc2cc(cnc2N)-c2c(nn(C)c2C#N)CN(C)C(=O)c2ccc(F)cc21 (stereo unspecified) | active: 1

Reference: the supplement of paper PMC11166567
